The conditions of this data set: Gallus gallus; pH 5.5; 35 °C; GdnHCl; Fluorescence; potassium phosphate 0.05 M; reversible: yes.

Consider “Lysozyme C wild type (sequence not shown)”, for which the “denaturant midpoint (higher = more stable)” value is 3.69 M and the unfolding free energy stood at 10.4 kcal/mol.

For the origin of these results see FireProtDB (doi:10.1093/protein/8.10.1023).
